Values marked as one replicate rest on one cluster of the flow cell; about a third of the high ones do not repeat.

The test system of the data set is ATP. Description: switch fluorescence ratio, 500 uM ATP over buffer (Cy3 cluster intensity, sum of 5 cycles each) (fold (ratio)); higher = stronger signal-on switching upon ATP binding; sequences stand for … in TCGTCGGCAGCGTCAGATGTGTATAAGAGACAGTTTTTTTTTTTTTTTTTTTTTTTTT…TC. The conditions noted are these: aptamer strand: ATP DNA aptamer (quencher-CACCTGGGGGAGTATTGCGGAGGAAGG + anchor), 100 nM annealed; ATP concentration: 500 uM; one replicate. A digest of the protocol:
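The fluorescence ratio divides summed target-cycle Cy3 intensity by summed buffer-cycle Cy3 intensity for each cluster and is averaged per switch-domain sequence. Cy3-labelled switching-strand clusters on a modified Illumina MiSeq flow-cell were annealed to 100 nM quencher-labelled ATP aptamer, then imaged in selection buffer and again after 15 min with 500 uM ATP at 22 °C. Five such cycles were run, with NaOH stripping and re-annealing between them, and clusters outside 100-1000 RFU were excluded.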
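Further: ATP exposure 15 min at 22 °C before imaging.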

As for CTGAGGATCT, the switch fluorescence ratio came out at 1.02. Under ATGACTAGTT stands 0.939; under AACATGTTGT, 1.07; under ACTTCGTGTG, 0.978. Take GCAATATAT: the switch fluorescence ratio stood at 1.18.

For the sequence TCTAATACTG, the switch fluorescence ratio came to 1.4. Then CACGTATTAA, with 1.13. Under TACATATAG stands 1.04.

As to TTATCTGGTT, the switch fluorescence ratio came out at 1.09. Consider CTGTAATCTG, for which the switch fluorescence ratio was found to be 1. Then AAATGCCT, with 1.17.

For the sequence TATTTCCGAA, the switch fluorescence ratio turned out to be 1.03. Under CCCGTGAACT stands 1.1. Then TCACCGAACG, with 1.34; and AAAATGAGGT, with 0.982; and AACGATCGCC, with 1.13.

For the sequence CGGTTGCCGT, the switch fluorescence ratio was found to be 1.01. Regarding AGCAAGGTTG, the switch fluorescence ratio is 1.01. Then GCCGGTGCTG, with 0.987.

With GCGACCGGGA, the switch fluorescence ratio was 0.983. For CCGGCTACGA, the switch fluorescence ratio worked out at 1.31. For the sequence ACCAGTAGGG, the switch fluorescence ratio was determined as 0.967.

As for CTTATATCGT, the switch fluorescence ratio turned out to be 0.966. Under GCTCTGAACC stands 1.1; under ATGGGAGACT, 1.02. For CTTTCGGTTC, the switch fluorescence ratio is 1.01.

As to GGGACCATTA, the switch fluorescence ratio was found to be 1.01. For CTATGTTTCT, the switch fluorescence ratio was found to be 0.979.

Consider GATCACTCAT, for which the switch fluorescence ratio stood at 1.02. Take TTTCTATCCC: the switch fluorescence ratio amounted to 1.03. For the sequence TATAGGTCTC, the switch fluorescence ratio came to 0.982.

As to GGGGGGAAT, the switch fluorescence ratio was found to be 0.987. For TCTCGAGTGC, the switch fluorescence ratio was found to be 1.02. Then AATAGGCTCT, with 1.01; and AGCCTTGACT, with 1.01. Under TGATTAATCT stands 0.993.

CCGTGCGTTC: the switch fluorescence ratio amounted to 2.52. Under AGGCCGGGCG stands 0.987; under GGTGGAAATA, 0.97; under AATAGCAGGG, 1.08. Under TTTGTAGATA stands 0.983. Consider GGTACTTGCT, for which the switch fluorescence ratio worked out at 0.968.

CATTACCCGT: the switch fluorescence ratio stood at 1.05. Under GTTTTATTAC stands 1.05; under GGTCAAATTT, 0.983; under ACCACGAGAT, 1.14. Consider GGGTTTAGCA, for which the switch fluorescence ratio turned out to be 1.01. Then AGGCTGATGT, with 0.964. Under AGCGGCATGA stands 1.02; under TGAGACTCAA, 0.985. Under ATATCGCGTT stands 0.928.

GCTCTTTCGG: the switch fluorescence ratio came to 1.02. Then GGTGTATTGT, with 1.01. As for TGTACAAGAG, the switch fluorescence ratio stood at 1.01. Consider GAACCTATAA, for which the switch fluorescence ratio turned out to be 1.05. Under CGTCGTACTT stands 1.03; under CCACGGGAAA, 0.988. CCTTGGACAC: the switch fluorescence ratio was 1.18. Then GCATTTAAAG, with 1.01. Under TTAGGATCTG stands 0.986; under GAGTCAGCAG, 1.19. AGGTCGATTG: the switch fluorescence ratio was determined as 0.976. Under TATTTGCGGG stands 1.01; under GGGTCTTGGT, 0.949. Regarding TCATTTCATA, the switch fluorescence ratio came out at 1. Under AGTAAAAGGA stands 0.986; under TTAAGGACGA, 1.05; under ATCTCGAGCC, 0.998. In the case of ATAGAGCTGG, the switch fluorescence ratio amounted to 1.03. Under TATATTATCA stands 0.969; under AACCAATGCA, 1.05; under CGTACGGAA, 1.17.

CAGAGATATG: the switch fluorescence ratio came out at 1.06. Take TAGGCTAA: the switch fluorescence ratio is 1.02. Then CCTGCGCTCT, with 6.75. Then GGTAAGAAGG, with 0.986; and GGTCTACAAA, with 1.03.

With TAAATCAAGC, the switch fluorescence ratio was 0.978. For CTGTCCTGTC, the switch fluorescence ratio was found to be 1.14. Then TTTGTAGT, with 1.14; and CTATCAAA, with 1.03. Regarding CTAGAATCGT, the switch fluorescence ratio stood at 1.02.

Take TGAACCGTAT: the switch fluorescence ratio is 1.01. For CCATAAGTTT, the switch fluorescence ratio came to 0.96. In the case of CCAGGACCCG, the switch fluorescence ratio turned out to be 0.989.

Take AAGGGGCAGT: the switch fluorescence ratio was 1.03. With CGGCCGACAT, the switch fluorescence ratio stood at 1.01. Then GGGACTAGCA, with 1.02; and GTTCGACTCG, with 0.988. As for GCGGTAATAG, the switch fluorescence ratio was 1.32. Regarding TCTGTTCGG, the switch fluorescence ratio worked out at 0.963. Then CTAACGTGAA, with 1.08.

Turning to TTTGAGTGCA, the switch fluorescence ratio was 0.974. Regarding GAAGCACAG, the switch fluorescence ratio stood at 1.15. Under GAGATAACGG stands 0.996; under GTCGAGCTGT, 0.965; under CGGTAAATAT, 1.02. Then ACTGGCATCG, with 0.997. Under TTTCTATTGA stands 1.02; under ACCCCGGCGG, 1.33.

Turning to ATTGGAGGCG, the switch fluorescence ratio amounted to 0.992. On to GGTATAGTCT, for which the switch fluorescence ratio turned out to be 1.02. Consider CCATTATGA, for which the switch fluorescence ratio was 1.05. As for CGGCTCAGGT, the switch fluorescence ratio was found to be 1.03.

With AGTTCGAGGT, the switch fluorescence ratio turned out to be 0.994. As for CAGTAGTCTC, the switch fluorescence ratio was determined as 1.06.

As to GTGCCTAGGG, the switch fluorescence ratio turned out to be 0.975. Under TACGGCAATT stands 1.23; under AATGATGCGA, 0.998. Under GCAGAAATGA stands 1.02; under CTGGGCTGAT, 1.03. Then CTCGGTGATC, with 1.06. With GGCAAAACCT, the switch fluorescence ratio was determined as 1.82. For CATCGTCGGG, the switch fluorescence ratio came to 0.976.

CTAAAGTGCA: the switch fluorescence ratio stood at 0.98.

For the sequence ACGACGGCGA, the switch fluorescence ratio was 1.52. For CTGAAGACGG, the switch fluorescence ratio came to 1.01. Under AAACGCGC stands 1.08; under GGCAATTTTA, 0.984. Under TGAATTAGAG stands 1.

(Values after the supplement of paper PMC10126150.)
